Source: PubChem BioAssay AID1345083 (National Center for Advancing Translational Sciences (NCATS), 2018)
The whole screen tested about 94,000 compounds, of which about 6,200 (6.6%) were called active. This list was built around the results that the source calls inconclusive (neither active nor inactive); the mix of calls is not that of the screen. The call rests on the fitted dose curve; in most records, active means well fitted inhibition curve with a large enough effect; inconclusive means small, poorly fitted or top-dose-only effect; inactive means flat fitted curve, though single readings scatter. Potencies of inconclusive entries are doubtful fits and often do not repeat.

assay: Cytotoxic Profiling in HEK 293 Cell Line of Diverse Libraries Using Quantitative High-Throughput Screening; settings: HEK 293 viability, ATP luminescence (CellTiter-Glo), 48-72 h; series mostly up to 115 µM; further: nearly all actives have a fitted effect of over 60% in size
In short: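 HEK 293 cells seeded at 250 cells/well were exposed to compound for 48 or 72 hr at 37 degree Celsius. Viability taken as ATP content by CellTiter-Glo luminescence.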
Potency means the concentration at half of the fitted maximal effect; tags describe the fitted curve by direction and shape.

Row | Structure (SMILES) | Potency
1 | COCCC1(CO)CCCN(C(=O)Cn2cc(C)c(=O)[nH]c2=O)C1 (stereo not drawn) | inactive
2 | CCCN(CC1CCOC1)C(=O)Nc1cccc(F)c1C (stereo not drawn) | inconclusive: 17.8 µM [inhibitor, full curve]
3 | COc1ccc2c(c1)c(CN1CCOCCNC(=O)CC1)cn2C(C)C | inconclusive: 56.2 µM [inhibitor, partial curve, poor fit]
4 | Cc1ccc(NC(=O)c2ccc3oc(-c4ccncc4)nc3c2)cc1 | inconclusive: 56.2 µM [inhibitor, full curve, poor fit]
5 | CC1(C(=O)N2CCC(c3ccccc3)CC2)COCc2cnc(Nc3ccccc3)nc21 (stereo not drawn) | active: 63.1 µM
6 | Cc1noc2c(NC(C)C)cc(-c3cccc(C(F)(F)F)c3)nc12 | active: 100 µM
7 | O=C(NCCc1ccccc1)N1CCC(CCc2nc(C3CCOCC3)no2)CC1 | inconclusive: 89.1 µM [inhibitor, single point]
8 | CCc1csc(CNC(=O)c2ccc(N(C)Cc3cccs3)nc2)n1 | inconclusive: 89.1 µM [inhibitor, single point]
9 | CC(C)c1ccc(C(=O)NCc2ccnc3[nH]ccc23)cc1 | inconclusive: 100 µM [inhibitor, partial curve, poor fit]
10 | CCOC(=O)C1=C(C)N=C2SC=C(CC(=O)NCCc3cccs3)N2C1c1ccccc1F (stereo not drawn) | inconclusive: 63.1 µM [inhibitor, partial curve, poor fit]
11 | CCc1ccc(N2CC(c3noc(-c4cc(F)ccc4F)n3)CC2=O)cc1 (stereo not drawn) | inconclusive: 89.1 µM [inhibitor, single point]
12 | COc1ccc(CN2CCOC(c3cccnc3)C2)cc1Cn1cccn1 (stereo not drawn) | inconclusive: 89.1 µM [inhibitor, partial curve, poor fit]
13 | COc1cccc(-c2noc(CC3CCN(C(=O)c4ccc(F)cc4)CC3)n2)c1 | inconclusive: 10 µM [inhibitor, full curve, poor fit]
14 | Cc1ccc(CN2CCC(Oc3cnc4c(ccn4CCN[S+](C)(=O)[O-])c3)CC2)c(F)c1 | inconclusive: 50.1 µM [inhibitor, partial curve, poor fit]
15 | COCc1cc(C[C@@H]2C[C@H](NC(=O)Nc3ccccc3)C2(C)C)no1 | inconclusive: 126 µM [inhibitor, single point]
16 | COc1cccc(-c2cnc3n[nH]c(-c4ccccc4)c3n2)c1 | active: 56.2 µM
17 | O=C(C1CC1)N1CCC(N2C(=O)C(O)C23CCCCC3)CC1 (stereo not drawn) | inconclusive: 89.1 µM [inhibitor, single point]
18 | CNC(=O)[C@@H]1CN(C(=O)c2cccn2C)C[C@H]1COC | inactive
19 | COc1cc(CN2C[C@@H](CO)[C@H](C3CCN(C(C)=O)CC3)C2)ccc1F | inactive
20 | C[C@]1(O)CCN(C(=O)c2cccc(Oc3ccccc3)c2)C[C@@H]1O | inactive
21 | O=C(CC1CCCC1)NC1CCCN(c2cc(N3CCCC3)ncn2)C1 (stereo not drawn) | inconclusive: 56.2 µM [inhibitor, partial curve, poor fit]

Row | Structure (SMILES) | Potency
22 | COc1ccc(CCc2nc(-c3nnn4c3COC(c3ccc(OC)cc3)C4)no2)cc1 (stereo not drawn) | inactive
23 | O=C(c1ccc(Cl)nc1)N1CCc2nc(-c3ccccc3)nc(-c3ccc(Cl)cc3)c2C1 | inconclusive: 35.5 µM [inhibitor, full curve, poor fit]
24 | COc1cccc(CNC(=O)C2CN(C3CCCC3)C(=O)N2)c1 (stereo not drawn) | inactive
25 | CCOC(=O)[C@H]1C[C@]2(CCCCN(CCOC)C2=O)N(C(=O)c2ccno2)[C@H]1c1ccco1 | inconclusive: 28.2 µM [inhibitor, full curve]
26 | NC(=O)c1cccc(-c2ncc3c(n2)OCCN(c2ccccc2)C3=O)c1 | inconclusive: 100 µM [inhibitor, partial curve, poor fit]
27 | COc1ccc(NC(=O)NC[C@@H]2C=C(C)[C@H](CC(=O)NCCN(C)C)C[C@H]2C(C)C)cc1 | inconclusive: 79.4 µM [inhibitor, partial curve]
28 | CN1CCN(c2ccc(-c3cc4c(ccn4C)c(C(=O)NCC4CCC(=O)N4)n3)cc2)CC1 (stereo not drawn) | active: 39.8 µM
29 | c1cncc(CN2CCC(OC3CCN(Cc4ccncc4)CC3)CC2)c1 | inactive
30 | COC(=O)C1CCN(C(=O)CC(c2ccccc2)c2ccccc2Cl)CC1 (stereo not drawn) | inconclusive: 89.1 µM [inhibitor, single point]
31 | O=C(CC1C(=O)NCCN1Cc1cccc(Oc2ccccc2)c1)NCc1ccoc1 (stereo not drawn) | inconclusive: 50.1 µM [inhibitor, partial curve, poor fit]
32 | CN1Cc2nc(Nc3ccccc3F)ccc2OCC1=O | inconclusive: 100 µM [inhibitor, partial curve, poor fit]
33 | Cn1cccc1C(=O)N[C@H]1C[C@@H](C(=O)O)N(C(=O)CSCC(=O)N2C[C@@H](NC(=O)c3cccn3C)C[C@H]2C(=O)O)C1 | inactive
34 | Cc1ccccc1N(C)C1CN(Cc2cncs2)C1 | inconclusive: 112 µM [inhibitor, partial curve, poor fit]
35 | Cc1cccc(-c2nc3ccc(C(=O)N4C(C)CCCC4C)cc3o2)n1 (stereo not drawn) | inconclusive: 112 µM [inhibitor, partial curve]
36 | CCOC(=O)c1ccc(NC(=O)Cn2ccn3nc4c(c3c2=O)CCCCC4)cc1 | active: 44.7 µM
37 | O=C(Cc1ccc(Cl)cc1)NC1CCN(c2cc(-c3ccccc3)[nH]n2)CC1 | inconclusive: 20 µM [inhibitor, full curve, poor fit]
38 | Cc1cccc(NC(=O)Cn2c(-c3cccc(Cl)c3)nc(C)c(CCO)c2=O)c1 | active: 39.8 µM
39 | COc1ccc(-c2cc3nc4c(c(=O)n3[nH]2)CN(C(=O)c2cc(CN3CCOCC3)on2)CC4)cc1 | inconclusive: 79.4 µM [inhibitor, single point]
40 | CCc1cccc2c(C(CC(=O)NCC(C)C)c3ccccc3OC)c[nH]c12 (stereo not drawn) | inconclusive: 79.4 µM [inhibitor, partial curve, poor fit]
41 | CN1CCC2(C1)CN(Cc1ccccc1)c1ccc(C(=O)NCC3CC3)cc12 (stereo not drawn) | active: 112 µM
42 | COc1ccccc1CN1CCc2ncc(C(=O)NCCC(C)C)n2CC1 | inconclusive: 100 µM [inhibitor, partial curve, poor fit]

Row | Structure (SMILES) | Potency
43 | CC1(CNc2ccccc2)COc2ccc(C(=O)N3CCN(c4ccccn4)CC3)cc2N1 (stereo not drawn) | inconclusive: 50.1 µM [inhibitor, partial curve, poor fit]
44 | O=c1[nH]c(C2CCN(Cc3ccccc3C(F)(F)F)CC2)nn1Cc1ccccc1 | inactive
45 | CN(Cc1ccccc1)[C@@H]1C[C@@H]2COCC[C@]2(c2ccccc2)C1 | inconclusive: 89.1 µM [inhibitor, partial curve, poor fit]
46 | CCNC(=O)O[C@@H]1CO[C@H]2[C@@H]1OC[C@@H]2NC(=O)c1cccc(C(=O)OC)c1 | inactive
47 | CC(C)NC(=O)c1nc(-c2ccc(Cl)cc2Cl)c2cnccn12 | inconclusive: 50.1 µM [inhibitor, partial curve, poor fit]
48 | CCC(C(=O)Nc1ccc2ncnc(N3CCCC3)c2c1)c1ccccc1 (stereo not drawn) | inconclusive: 50.1 µM [inhibitor, partial curve, poor fit]
49 | O=C(Nc1cccc(Cl)c1)[C@@H]1C[C@@H](c2ccc(F)cc2)N([S+](=O)([O-])c2ccccc2)C1 | inconclusive: 31.6 µM [inhibitor, full curve]
50 | COCCCNc1nc2c([S+](=O)([O-])c3ccc(Cl)cc3)nnn2c2ccccc12 | inactive
51 | O=[S+]([O-])(NC1CCN(Cc2cccc(-c3ccc(F)c(F)c3)c2)CC1)c1cccc(C(F)(F)F)c1 | active: 22.4 µM
52 | Cn1ccnc1C(=O)N1CCCCCCNC(=O)[C@@H]2C[C@@H](C(=O)N3CCc4ccccc4C3)C[C@@H]21 | inconclusive: 56.2 µM [inhibitor, partial curve, poor fit]
53 | CCC(=O)N1CCCN(CC)C2(CCOCC2)C1 | inactive
54 | Cc1ccccc1C(=O)N1CCn2c(nn(-c3ccc(F)cc3)c2=O)C1 | inconclusive: 112 µM [inhibitor, partial curve]
55 | Cc1cccc(OCCc2noc(C3CCCN3C(=O)COc3ccccc3)n2)c1 (stereo not drawn) | inconclusive: 79.4 µM [inhibitor, partial curve]
56 | CCn1ncc(CN2CCCC23CCN(c2cc(C)nc4ccccc24)CC3)c1C | inconclusive: 79.4 µM [inhibitor, partial curve, poor fit]
57 | CN(Cc1ccc(-c2ccccc2)cc1)C(=O)c1ccccc1 | inconclusive: 63.1 µM [inhibitor, partial curve, poor fit]
58 | COc1ccc(C(=O)NC2CCN(Cc3cccc(-c4ccc(F)c(F)c4)c3)CC2)cc1 | inconclusive: 22.4 µM [inhibitor, full curve, poor fit]
59 | N#Cc1ccc(CN2CC[C@@H]3OCC(=O)N(CCc4cccnc4)[C@H]3CC2)cc1 | inconclusive: 63.1 µM [inhibitor, full curve, poor fit]
60 | COC(=O)c1ccc(CN2C(=O)[C@@H]3C[C@@H](O)CN3C3(CN(CC4CCCCC4)C3)C2=O)cc1 | inactive
61 | O=C(Cc1cccc(Cl)c1)NC1CCN(C(=O)c2ccc(-c3cccs3)cc2)CC1 | inconclusive: 50.1 µM [inhibitor, partial curve, poor fit]
62 | O=C(NCCc1ccccc1)C1CCN(C(=O)c2ccc(-c3cccs3)cc2)CC1 | inactive
63 | O=S(=O)(c1ccccc1Cl)N1CCC(c2noc(COCc3ccccc3)n2)CC1 | inconclusive: 44.7 µM [inhibitor, partial curve]
